Results reported in PubChem BioAssay AID624171 (National Center for Advancing Translational Sciences (NCATS), 2012).
Hit rate of the full screen: of about 410,000 compounds, about 1,200 (0.29%) were called active. The shares of active, inactive and inconclusive entries below differ from those in the screen. Calls come from the whole dose curve; as a rule, active = well fitted activation curve with a large enough effect; inconclusive = small, poorly fitted or top-dose-only effect; inactive = flat fitted curve, though single readings scatter. A potency beside an inconclusive call is a rough fit, not a confirmed value.

experiment: qHTS of Nrf2 Activators; settings: AREc32 ARE-luciferase reporter (MCF7-derived line), luminescence, 24 h; series mostly up to 46.1 µM; note: nearly all actives have a fitted effect of over 65% in size
Method in brief: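 AREc32 cells carrying an ARE-driven firefly luciferase, 1000 cells/well in OPTI-MEM with 5% FBS, dosed after overnight attachment and incubated 24 hr at 37 deg C. Steady-Glo luminescence read after 30 min at RT.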
Potency is the fitted concentration of half-maximal effect; tags give direction and shape of the fitted curve.

Potency, active:
CCN(C(=O)Cn1nnc2sc(-c3ccccc3)cc2c1=O)c1cccc(C)c1 4.47 µM
FC(F)(F)c1cc(-c2cccs2)nc(-n2cc(Br)cn2)n1 3.16 µM

Potency, inactive:
Cc1ccc(Cl)cc1-n1ncc2c(Nc3cccc(C)c3C)ncnc21
CCC1CCC2(CC1)NC(=O)N(CC(=O)Nc1cccc(S(=O)(=O)N(C)c3ccccc3)c1)C2=O (centres undefined)
O=C(COC(=O)C1(c2ccccc2F)CCCC1)NCc1cccs1
CCOc1ccc(S(=O)(=O)Nc2nc3ccccc3nc2Nc2ccc(OC)cc2)cc1
Cc1ccc(O)c(NC(=O)c2ccccc2-c2ccccc2C(=O)O)c1
CNC(=O)C[C@H]1C(=O)N(c2ccc(OC)cc2)C[C@@H]1CSC
O=C(Nc1ccc2nc(SCC(=O)N3CCCc4ccccc43)sc2c1)c1ccccc1
C=CC[C@H](CC(=O)NCCO)C(=O)NC[C@@H](OC(=O)[C@@H](CC=C)Cc1ccc(F)cc1)c1ccccc1
O=C(NC1CCCCC1)c1cc2ccccc2cc1O
C=CCSc1nn2c(=O)c3ccccc3nc2s1
O=C(O)CSc1cc(NS(=O)(=O)c2ccc(Cl)cc2)c2ccccc2c1O
CCN(CC)C(=O)c1cc(-c2ccc(Cl)cc2)on1
CC1=C(C(=O)OC2CCCCCC2)C(c2ccc(Cl)cc2)CC(=O)N1 (centres undefined)
O=C(NCC(=O)N1CCN(Cc2ccccc2)CC1)c1ccc(Br)cc1
CCc1c(C)nc2nc(-c3ccccc3)nn2c1NCc1ccc(C)cc1
CCCNC(=O)CSc1cn(CC(=O)N2CCCCCC2)c2ccccc12
CCOC(=O)Cn1c(=O)n(-c2ccc(Cl)cc2)c2nc(-c3ccc(Cl)cc3)nc(C(N)=O)c21
Cc1ccc(-n2c(-c3ccccc3)c[n+]3c2CCc2ccccc2-3)c(C)c1
Cn1c(=O)oc2cc(S(=O)(=O)N3CCC(C(=O)N4CCN(c5cccc(Cl)c5)CC4)CC3)ccc21

Potency, inconclusive:
CC1=NN(C(=O)c2ccco2)C(O)(c2ccccc2)C1 (centres undefined) 35.5 µM [activator, single point]
Nc1c(Br)cc2oc(-c3ccccc3)nc2c1Br 1.12 µM [activator, full curve, poor fit]
NC(=O)C(=O)N/N=C/c1cccc(C(F)(F)F)c1 12.6 µM [activator, partial curve, poor fit]
C/C(=C\c1cccc(Cl)c1Cl)C(=O)c1c(C)cc(C)[nH]c1=O 28.2 µM [activator, single point]
CC1CCN(CCC(=O)N2CCCc3c2c(=O)oc2ccc(O)cc32)CC1 31.6 µM [activator, single point]
COc1ccc(Cl)cc1NC(=O)CN(C)C(=O)c1cc(=O)c2ccccc2o1 12.6 µM [activator, single point]
COc1cccc(C2=CC(c3cccs3)n3nnnc3N2)c1 (centres undefined) 10 µM [activator, partial curve, poor fit]
C=CCn1c(NC(=O)c2ccco2)nc2ccccc21 2.51 µM [activator, partial curve, poor fit]
O=c1[nH]ncc(N/N=C/c2ccccc2)c1Cl 17.8 µM [activator, single point]
Fc1ccc(/C=N/Nc2ncnc3nc[nH]c23)cc1F 14.1 µM [activator, single point]
O=C(Nc1nnc(COc2ccc(Br)cc2)s1)c1ccco1 22.4 µM [activator, single point]
c1ccc(Nc2nc(-c3ccncc3)cs2)cc1 12.6 µM [activator, single point]
CCn1ncc(/C=C/C(=O)c2ccccc2)c1C 28.2 µM [activator, single point]
O=C(CC(=O)c1ccccc1)CC(O)(C=Cc1ccccc1)c1ccccc1 (centres undefined) 17.8 µM [activator, single point]
CCOC(=O)N1CCN(C(=O)/C=C/c2cccc([N+](=O)[O-])c2)CC1 22.4 µM [activator, single point]
CC(=O)Nc1ccc(SCC(=O)c2ccc(Br)s2)cc1 22.4 µM [activator, single point]
CN(CC(=O)Nc1ccccc1Cl)C(=O)COC(=O)/C=C/c1cccc(C(F)(F)F)c1 15.8 µM [activator, partial curve, poor fit]
O=C(Nc1ncccc1O)c1ccc(C(=O)c2ccccc2)cc1 22.4 µM [activator, single point]
COC(=O)/C=C/COc1ccccc1[N+](=O)[O-] 15.8 µM [activator, partial curve, poor fit]
CC(=O)N(/N=C1\Sc2ccccc2C1=O)c1ccccc1 3.16 µM [activator, full curve, poor fit]
Cc1ccsc1C1C(C#N)=C(N)Oc2n[nH]c(C)c21 (centres undefined) 35.5 µM [activator, partial curve, poor fit]
N/C(=N\OC(=O)/C=C/c1ccccc1)c1cccnc1 1 µM [activator, full curve, poor fit]
O=C(CCn1c(=O)oc2ccccc21)Nc1cccc([N+](=O)[O-])c1 15.8 µM [activator, partial curve, poor fit]
O=C(OCn1ncc(Br)c(Br)c1=O)c1ccccc1Cl 3.98 µM [activator, single point]
O=C(Nc1ccc2oc(-c3ccncc3)nc2c1)c1ccc([N+](=O)[O-])o1 3.16 µM [activator, full curve, poor fit]
CCNc1ccc2c(Cl)cc(=O)oc2c1 12.6 µM [activator, single point]
Cc1nc2ccccc2c2nc3ccccc3n12 14.1 µM [activator, single point]
O=[N+]([O-])c1cncc([N+](=O)[O-])c1Nc1ccccc1Cl 35.5 µM [activator, single point]
Cc1noc(C(=O)Nc2cc(Cl)ccc2O)c1Cl 6.31 µM [activator, partial curve, poor fit]
O=C(NCc1ccco1)Nc1cccc2ccccc12 17.8 µM [activator, single point]
Cc1ccc2nc(-c3c[nH]c4ccccc34)c(Nc3ccc(F)cc3)n2c1 14.1 µM [activator, partial curve, poor fit]
CCc1nc(SCC(=O)c2ccc3c(c2)OCCO3)c2ccccc2n1 20 µM [activator, single point]
Cn1c(O)c(N=Nc2ccccc2[N+](=O)[O-])c2ccccc21 14.1 µM [activator, partial curve, poor fit]
CCOc1ccccc1/C=C/C(=O)c1ccc(Cl)cc1 12.6 µM [activator, partial curve, poor fit]
CSc1nc2ccc(NC(=O)C3=NNC(=O)CC3)cc2s1 11.2 µM [activator, partial curve, poor fit]
O=C(/C=C/c1ccccc1O)c1ccccc1 22.4 µM [activator, single point]
Cc1nc2ccccc2cc1C(=O)N/N=C/c1ccco1 14.1 µM [activator, single point]
CCSC1(SCC)N=C(N)C2(C#N)C(c3ccc(F)cc3)C12C#N (centres undefined) 31.6 µM [activator, single point]
O=C(c1ccccc1)n1c(=S)nc2ccccn21 2.24 µM [activator, full curve, poor fit]
Cc1noc(/C=C/c2ccccc2F)c1S(=O)(=O)N1CCC(C(=O)N2CCN(C)CC2)CC1 15.8 µM [activator, single point]
FC(F)(F)c1nnc2c(Sc3ccccc3)nc3ccccc3n12 11.2 µM [activator, partial curve, poor fit]
NC(=S)NN=Cc1nccc2c(C(F)(F)C(F)(F)C(F)(F)F)cccc12 12.6 µM [activator, partial curve, poor fit]
Cc1ccc(NC(=O)c2ccc(Br)o2)c([N+](=O)[O-])c1 11.2 µM [activator, partial curve, poor fit]
COc1ccc(/C=C/C(=O)c2ccc(O)cc2)cc1CN1CCOCC1 10 µM [activator, partial curve]
O=C(/C=C/c1ccccc1F)c1ccoc1 17.8 µM [activator, single point]
CC(=O)c1ccc(Sc2nnnn2-c2ccccc2)c([N+](=O)[O-])c1 12.6 µM [activator, single point]
COc1cc(C(=O)NC2CCN(C)CC2)ccc1Nc1ncc2c(n1)N(Cc1ccccc1)CCC(=O)N2C 11.2 µM [activator, partial curve, poor fit]
O=C(CSc1nnc2scc(-c3ccc(Cl)cc3)n12)NCc1ccco1 11.2 µM [activator, partial curve]
